# Results reported in the supplement of paper PMC11417369.
# The other results are listed elsewhere or left out.
# Tested on: PfSIP2 AP2 domain 1 (GST-tagged)
# Assay: gcPBM binding intensity (ln(normalized median fluorescence intensity)); higher = stronger DNA binding
# How it was run: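 For binding intensity, the highest Masliner-normalised natural-log median intensity across replicate spots of either probe orientation was taken. Protein bound to the array was stained with Alexa488 anti-GST antibody and scanned at 488 nm. The protein, GST-tagged P. falciparum DNA-binding domains from E. coli at about 25 μg on average, had been applied for 1 h to an Agilent 4 × 180k array of primer-extended double-stranded 36-bp intergenic genomic probes and negative controls.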
row,Sequence,gcPBM binding intensity (ln)
1,AATAACACTATTTAACGTACAAAAAAAAAAAAGAAA [XGTACX_site3721],7.25
2,ATACTAAAAATGAATGTACACATATATATATATATA [TGCATGCA_negctrl_site209],9.28
3,TATAATAAAATATTTTGTACGTATATTTTAATATTT [XGTACX_site2582],7.2
4,AAAAAAAATAAAAATAGTACCCAAAAAATTATGAAT [XGTACX_site6641],6.98
5,TATGCACTTTAGGGCAGTACGTCAACATTATCTTTA [XGTACX_site3382],7.93
6,CCTCATACGAAATATAAACACACATACAATAAATAA [CACACA_site8620],7.06
7,ATAAATTTTTTTTTTTTTTTTTTTTTTTTTTTTTTT [CACACA_negctrl_site508],8.96
8,ATTTTTTTCATAGACACACACAATATATCTGTTTCC [CACACA_site3023],7.18
9,TATATTTATTATAACACACACATATAAATATTATAG [CACACA_site6726],7.11
10,TGTTAAAATTATTTGGTGCACTTGTTTTACCTTATT,11.3
11,CATTATTCTTTTAATATACACACTTTGTCTTTTCGC [CACACA_site2762],7.05
12,TCTCATAGTAAACACACACACACACCCACATATATA [CACACA_site5034],7.16
13,AAGATAAAATGATGCACACAAAAGGGTGTAATATAT [CACACA_site1706],7.48
14,GAAGTTTTCTTAAAGATGCACTTTTTAAAAATAAAA [GTGCAC_site9941],9.06
15,TCTTCTTTTTTTTTTTTGTATTATTATAAATATTAT [CACACA_negctrl_site1668],7.06
16,TTTTTTTTTTTTAATGCACACAATATATAATATGTA [CACACA_site3694],7.37
17,TTTTTTTTTTTTCAATCACACATGTTTTAATTATTT [CACACA_site5532],6.92
18,TGTACGTTTTATAACACACACACAAAAAAAAAAAAA [CACACA_site3875],7.09
19,TGTAATAATATTTATGTGCACATATATTAAACTATA [GTGCAC_site9584],8.72
20,TCATTTCACAGACACACACACACAAGATATTTCCTT [CACACA_site7774],7.21
21,TTTCTTCTTCAATGTTGTACTTTTCTCTTTTCTTAA [XGTACX_site1017],7.26
22,GTTCATAAAAATTTTTGTACCCATAAAATATTCCTC [XGTACX_site8611],7.11
23,GTAGGTGTTTTTGGTTGTACATATAAATATATATAC [XGTACX_site3380],7.37

row,Sequence,gcPBM binding intensity (ln)
1,TTTTTTTTTTTTAATTGTACTTATTAAAAAAAGCAA [XGTACX_site8713],7.07
2,AGATAAATATATTGTAGTACAGGAGCATAAATATAT [XGTACX_site8267],7.08
3,TATTTTCATTATACTACTTCGAAGATACCCTTTTTT [CACACA_negctrl_site256],6.79
4,TATAAACATTAAAGGTGTACAATTTAATTTCAATTT [XGTACX_site2944],7.08
5,GTTCTTCCTTGTAAATGTACAAATACAAAATGTTCC [XGTACX_site6738],7.5
6,GATATATATGTTCACACACACATGGAAATATATATA [CACACA_site4371],7.29
7,TTAAGATCCTAAAAAACACACAATTGCGAATAATAA [CACACA_site6005],6.83
8,ATATCATAAAAAATGTGTACATATATGAACATATAA [XGTACX_site2239],7.14
9,GGAAATTAACAGAACACAATGTAACAATTTCTAACA [CACACA_negctrl_site1250],6.73
10,TGGGAAAAAATATATGCACACCCCCCAAAAAAAAAA [CACACA_site8696],10.8
11,AATTCTTTATTATATGCACACGTACATATAATATAT [CACACA_site8621],7.16
12,AAAAAATGTTATAAAAGTACATAATTTATCTACCAT [XGTACX_site3035],6.94
13,TAACTTTGGAGGAGCTGTACGATTATTTTGATCCTT [XGTACX_site2514],6.81
14,AAAAAATTTCAAATAACACACACTAATATAAATATG [CACACA_site6783],6.91
15,TTTAAAAAATAATATTGTACTATTCTCCCAATTTCT [XGTACX_site7079],6.57
16,TTTTTATATAATTTAACACACATTTCATATAAAAAA [CACACA_site3103],7.11
17,ATGTGAAAATAAGACACACTCAAAAGGTTTATATTA [CACACA_site4595],6.84
18,ATATACTGTATGAAAGCACACATACTTATTACTAAC [CACACA_site9384],7.04
19,AAAAAATGAAAAAACTGTACGCAATTTTGTTTTTAT [XGTACX_site2299],7.55
20,AAGTTTTTTTTTATCACACACAAAAAAAAAAATATA [CACACA_site1362],7.11
21,AAAAAAAAAAAAAAGTGTACCTTCAAAATAATATTG [XGTACX_site2844],7.09
22,ATAAATATAAAACACACACACATATTATATATATAT [CACACA_site3064],9.06
23,TCTTTCCTTATTAAAACACACAAATACATTATTTAA [CACACA_site2147],7.13

row,Sequence,gcPBM binding intensity (ln)
1,CCTTTTTCTACTTTCTCACACATATTAAGAATTATA [CACACA_site5621],7.52
2,CACAAATATATACATACACACATATATACACATATA [CACACA_site8024],7.19
3,AAAACGCAGTTTAATATACACACCAAAAAAAAAAAA [CACACA_site3036],6.91
4,TTTGAGATGTGGTGTACACAAAATTAGGTACACATC [CACACA_site5773],7.38
5,TGTTTTTAAAAATATACACACACAGATATTATATAT [CACACA_site8162],7.12
6,TTTTATATTTATTTTTGTACATAAATGATCTCAAAT [XGTACX_site7768],6.84
7,TAAAATATGTCATGGGTGCTTCTTTTTATACCTATG [GTGCAC_site9888],7.85
8,AAAAAAAAAAAATTATGTACATATTATATATAATGG [XGTACX_site2885],6.92
9,AAATATTATAATAATTGTACTATATATACAGTTATT [XGTACX_site1963],6.93
10,ATATATATATATTTATGTACGCATTTATAGACGTAG [XGTACX_site6031],8.83
11,TATGATAACCATAATTGTACAGAATGAAACGTAAAT [XGTACX_site1653],7.26
12,AGAAAAAAAAAAAAAAATAAAAAAATAAATAAATAA [GTGCAC_negctrl_site161],6.7
13,ACTTAAATAATACATACACACATGTACTTACAGAAA [CACACA_site8458],7.32
14,AAAAAAAAAAAAAACACATGCAGAAGAAAAAAAATA [TGCATGCA_site545],7.22
15,AATTGTTTTTTTTTCTTATTTTATGTTATACACACA [TGCATGCA_negctrl_site380],6.94
16,AAATGAACATATATGTGTACTTATATTTTTCTAAAT [XGTACX_site3388],7.1
17,ATATATTTTTCTTTACGTACGAAGCAAAATAACATT [XGTACX_site8145],7.05
18,AAAAAAAAAAAAAAAGTGCATATATAAATATTGTAT [GTGCAC_site9459],9.58
19,TCATTAAATGTTTAGGTGCATACTTTAATTTTTAAT [GTGCAC_site9906],9.99
20,TATTAATTTCGGGAAGTGCATTATGTTTATAGAATA,8.44
21,ATTATATAAGTACACAAACAAGTATGAGATTCAAAA [GTGCAC_negctrl_site119],7.17
22,TGTTTTAAACTAATTTGTACATAGTTATTTATATTT [XGTACX_site7196],6.8
23,CCATATATTTGGTATAGTACTTTTTATTTTATTTCA [XGTACX_site8933],6.96

row,Sequence,gcPBM binding intensity (ln)
1,CATATACATTGTATATGTACATATATATATATATAT [XGTACX_site3772],9.32
2,GATTATATATTAAAAAGTACTTTATAAATACTTCTA [XGTACX_site8992],7.05
3,TGATGCAAAATATATACACACATATATATATATATA [CACACA_site3052],9.36
4,TATGGGTTTATATAGGTGCAATATATGTATATATAA,10.2
5,TATACCACCCGATATACACACTTGTAGACATCTTTT [CACACA_site4268],6.93
6,ACAAAACTCTTTAATTGTACAAATATAATATAAAAA [XGTACX_site5690],7.05
7,TATATAGTTTATATTTGTACATATAGACATTTATAA [XGTACX_site6414],6.9
8,AGCAATATTTATTAAAGTACGTAAAAAAAATTCTCA [XGTACX_site6550],7.16
9,CAAAGCATAGTATGATGTACAAATGTTCCTATAATA [XGTACX_site8642],6.96
10,TCTTATTATAAAAGGAGTACATCAATTAGATGTTCC [XGTACX_site8465],6.76
11,ATATATATATAATATTGTACATAGTAGACATCACAC [XGTACX_site4649],8.87
12,TATATATGTATAAGAGTGCATATGCATATATGTATA [GTGCAC_site9692],9.54
13,TAAAATATGGAAATCACACATTTATTAAAATATATA [CACACA_site4623],6.59
14,TTATGTTTATACACTACACACATTATTCATAAAAAA [CACACA_site4637],7.22
15,CATCTTAAATAAGAACGTACATTTTTTTTGATGAGA [XGTACX_site3462],6.79
16,AAGACAAAACAAAGAAGTACATATATATATATATAT [XGTACX_site4067],9.37
17,GGAGACTTTGTACAAACACACACATGAACACAATAT [CACACA_site8376],7.28
18,TAATTTAAAAATGAACATATATATGTATGTAAATAT [TGCATGCA_negctrl_site135],7.28
19,ATGTATATATTTATGTGTACTTAAATTTTTTTTTGT [XGTACX_site8179],7.25
20,TTTTAATATATAGAGTAACAAATTTGTCTATTAATA [CACACA_negctrl_site1495],6.76
